Publication PMC6919601, “Identification of Plasmodium dipeptidyl aminopeptidase allosteric inhibitors by high throughput screening” (PLoS ONE, 2019)
“And” between values parts separate entries of the source, which are not always exact repeats. Equal entries are not always repeated. The campaign covered roughly 110,000 compounds. About 230 (0.21%) showed an effect of 50% or more. Some of the results follow.

target: DPAP1 (Plasmodium falciparum, UniProt Q8IIJ9); experiment: primary screen, percent inhibition; read by cleavage of a fluorogenic dipeptide substrate; higher = more effect of the substance; design: species or system P. falciparum D10 trophozoite lysates; single well
Sequence (Q8IIJ9 whole entry, looked up): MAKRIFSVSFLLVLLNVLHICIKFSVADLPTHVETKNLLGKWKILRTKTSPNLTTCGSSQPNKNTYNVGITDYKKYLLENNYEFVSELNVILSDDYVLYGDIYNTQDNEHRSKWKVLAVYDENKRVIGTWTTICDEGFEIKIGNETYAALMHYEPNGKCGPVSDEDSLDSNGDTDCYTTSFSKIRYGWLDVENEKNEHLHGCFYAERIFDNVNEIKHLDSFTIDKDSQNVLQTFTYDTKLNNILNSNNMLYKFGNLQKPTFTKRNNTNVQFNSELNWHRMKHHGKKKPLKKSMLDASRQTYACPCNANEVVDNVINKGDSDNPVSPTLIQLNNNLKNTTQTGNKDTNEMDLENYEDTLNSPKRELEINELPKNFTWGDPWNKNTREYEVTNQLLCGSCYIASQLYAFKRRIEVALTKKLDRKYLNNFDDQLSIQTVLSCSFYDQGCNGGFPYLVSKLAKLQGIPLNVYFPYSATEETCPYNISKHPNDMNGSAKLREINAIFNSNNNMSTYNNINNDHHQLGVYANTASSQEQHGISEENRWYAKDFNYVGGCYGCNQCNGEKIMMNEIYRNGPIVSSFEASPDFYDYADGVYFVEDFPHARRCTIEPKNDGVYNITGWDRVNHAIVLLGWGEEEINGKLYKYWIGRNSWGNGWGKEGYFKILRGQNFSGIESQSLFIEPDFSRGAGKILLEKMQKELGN
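Also: 30 min substrate incubation versus DMSO and 10 µM JCP410 controls.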

SMILES	% Inhibition @ 10 uM
Cc1ccc(-c2c(C(=O)O)n(C)c(=O)c3ccccc23)cc1C	-7.91%
Clc1ccc(-c2nn3c(Cn4cnc5ccccc54)nnc3s2)cc1	48%
O=C1N=C(N2CCCCCC2)S/C1=C/c1ccc(Cl)cc1	-1.65%
Cc1ccc(Cn2c(=O)c(C#N)cc3c(=O)n4cccc(C)c4nc32)cc1	-5.92%
COc1cc(C)c(CN2CCC(Cc3ccccc3)CC2)cc1C	-5.57%
c1cc(CCSC2CCCCC2)ccn1	0.00178%
COc1cccc(/C=C2N=C(/C=C/c3ccc(C)cc3)OC\2=O)c1	8.65%
Cc1cc2oc3c(c(=O)c2cc1C)C(c1ccc(C(C)C)cc1)N(CCCN1CCOCC1)C3=O (centres unmarked)	-4.78%
O=C(NCc1cccnc1)c1ccccc1O	5.38%
COc1ccccc1C1(c2c(OC)c(=O)c2=O)SCCCS1	0.746%
Cc1cccc(C(=O)Nc2cccc(C(N)=O)c2)c1	-7.93%
N#CCSc1nc2ccccc2s1	15.8%
CCOC(=O)C1=C(C)N=c2s/c(=C/c3ccc(C(=O)OC)cc3)c(=O)n2C1c1cccs1 (centres unmarked)	-0.178%
Cc1ccc(N2C(=O)CC(NCc3ccco3)C2=O)cc1 (centres unmarked)	0.161%
O=C(CC(c1ccccc1)c1ccccc1)Nc1ccc2c(c1)OCCO2	-5.14%
CCc1nc(N2CCCCC2)c(C#N)c2c1COC(C)(C)C2	3.76%
CC1=C(C(=O)OCCOC(C)C)C(c2cc3c(cc2Br)OCO3)CC(=O)N1 (centres unmarked)	2.54%
O=S(=O)(Cc1ccccc1)Nc1cccc(C(F)(F)F)c1	3.44%
CC(C)c1ccc(C2C(C(=O)c3cc4ccccc4o3)=C(O)C(=O)N2CCCn2ccnc2)cc1 (centres unmarked)	-6.68%
COc1ccc(C2CC3=Nc4ccccc4NC(c4cccc(O)c4)C3=C(O)C2)cc1 (centres unmarked)	-0.988%
CCOc1ccc(C(CC(=O)O)NC(=O)CCCOc2ccc(Cl)cc2C)cc1 (centres unmarked)	4.32%
O=[N+]([O-])c1ccc(N2CCN(Cc3ccc(O)cc3)CC2)cc1	3.25%
COc1c(Cl)cc(Cl)cc1/C=C(\C#N)c1nc2ccccc2[nH]1	7.1%
COc1cc(S(=O)(=O)Nc2ccccc2C)ccc1/N=C/c1c(C)nn(-c2ccccc2)c1O	-0.305%
O=C(NCC1CCCO1)c1cc(-c2cccnc2)nc2ccccc12 (centres unmarked)	-4.06%
CCNC(=O)C1c2ccccc2C(=O)N(C)C1c1cccs1 (centres unmarked)	-6.05%

SMILES	% Inhibition @ 10 uM
CCCCCCn1c(SCC(C)C)nc2c1c(=O)[nH]c(=O)n2C	2.46%
O=C(NC1CCCCC1)c1ccc(C(=O)N(C2CCCCC2)C2CCCCC2)cc1	-2%
CCOCCCNC(=O)c1nc(-c2cccc(F)c2)n2c1CCCCC2	-3.88%
CC1(C)CC(=O)C2=C(C1)OC1=C(C(=O)CC(C)(C)C1)C2c1ccc(O)cc1O	-1.28%
C=CCOc1c(Cl)cc(CNC2CCCC2)cc1OC	-1.38%
CCOC(=O)c1c(-c2ccccc2)csc1/N=C/C1C(=O)CCCC1=O	3.72%
O=C(COc1ccccc1Cl)Nc1ccccc1C(=O)Nc1ccccc1	-1.04%
CC(C)(C)OC(=O)N1CCC2(CC1)N=C(c1ccccc1)C(=S)N2	-2.41%
Cc1cc(/C=C2/NC(=O)NC2=O)c(C)n1-c1ccc(C(C)C)cc1	0.487%
Cc1cccc(NC(=O)Cc2ccccc2Cl)n1	1.18%
Cc1ccc(-n2ncc3c(NCCCO)ncnc32)cc1Cl	-6.68%
Cc1cccc(NC(=O)c2ccc(Cl)c(Cl)c2)n1	-2.09%
Cc1oc2ncn3nc(C(C)Oc4cccc5ccccc45)nc3c2c1C (centres unmarked)	-3.91%
C=C(C)Cn1c(-c2ccc(OC)c(OC)c2)nc2ccccc21	-1.81%
CC1CCC(NCc2c(C(=O)O)n(Cc3ccc(F)cc3)c3ccccc23)CC1 (centres unmarked)	5.09%
CC1=C(C(=O)Nc2cc(Cl)ccc2C)C(c2ccc(N(C)C)cc2)NC(=O)N1 (centres unmarked)	5.85%
Cc1ccc(CN(Cc2ccco2)C(=S)NCC(=O)N2CCC3(CC2)OCCO3)cc1	-3.94%
COc1ccc(NC(=O)C2=C(C)NC(=O)NC2c2ccc(N(C)C)cc2)cc1 (centres unmarked)	-2.18%
CCS(=O)(=O)Nc1ccc(C(=O)c2ccccc2)cc1	-2.65%
COC(=O)c1ccc(/C=c2\sc3nc(-c4ccc(C)cc4)nn3c2=O)cc1	-5.63%
Cc1ccc(Sc2nnc3c(=O)n(C)c(=O)n(C)c3n2)cc1	-1.15%
COc1ccc2c(CNCCc3ccccc3OC)c(C(=O)O)n(Cc3ccccc3C)c2c1	-2.56%
O=c1c(Oc2ccc(Cl)cc2Cl)c(C(F)(F)F)oc2cc(O)ccc12	-6.83%
O=C(O)Cn1cnc(-c2ccc(F)cc2)c1	-1.82%
CSc1ncc(Cl)c(C(=O)Nc2nnc(C(C)C)s2)n1	6.76%
CC(C)Oc1ccc(C(=O)N2CCc3ccccc32)cc1	-1.12%

SMILES	% Inhibition @ 10 uM
COc1cccc(C(=O)NC2(C(F)(F)F)NC(=O)N(C)C2=O)c1 (centres unmarked)	3.21%
Cc1ccc(C(=O)Nc2ccccc2C(N)=O)cc1Br	-1.51%
COc1ccccc1CNCc1c(C(=O)O)n(Cc2ccccc2)c2ccccc12	5.09%
CCn1c(C)cc(/C=C2\NC(=O)N(CC(=O)Nc3ccc(Cl)cc3)C2=O)c1C	5.31%
O=C(C1CCCO1)N1N=C(c2c(O)nc3ccc(Cl)cc3c2-c2ccccc2)CC1c1ccco1 (centres unmarked)	-2.77%
O=C(NC(C(=O)c1ccccc1)N1CCCC1)c1ccco1 (centres unmarked)	-0.891%
Cc1oc2c(cc(O)c3ccccc32)c1C(=O)O	1.91%
O=C(c1cc2n(n1)C(C(F)(F)F)CC(c1ccc(F)cc1)N2)N1CCCC1 (centres unmarked)	1.15%
CCOC(=O)N1CCN(c2c(NCCN3CCCCC3CC)c(=O)c2=O)CC1 (centres unmarked)	-11%
Cc1cccc(N(CC(=O)NCC2CCCO2)S(C)(=O)=O)c1C (centres unmarked)	1.64%
Cc1sc(C)c(-c2ccccc2)c1C(=O)O	-4.96%
CCCOc1ccc(N2CC(C(=O)Nc3cccc(OCC)c3)CC2=O)cc1 (centres unmarked)	4.31%
COc1cc(NC(=O)Cn2nc(C(F)(F)F)cc2C2CC2)cc(OC)c1OC	1.17%
CNc1c(NC(=O)c2cc(OC)ccc2Br)c(=O)oc2ccccc12	4.95%
Cc1ccccc1C(=O)Nc1sc2c(c1C(N)=O)CCCC2	-0.622%
COC(=O)c1ccc(NC(=O)c2ccccc2Br)cc1	0.912%
Cc1ccc(Cn2ncc3c(N4CCCC4)ncnc32)cc1	-8.42%
FC(F)(F)C(Oc1nc(OC(C(F)(F)F)C(F)(F)F)nc(N2CCOCC2)n1)C(F)(F)F	0.587%
Cc1ccc(CCNC(=O)CCCc2cn(C)c3ccccc23)cc1	2.05%
Cc1ccc(C(=O)N/C(=C\c2cccs2)C(=O)N2CCOCC2)cc1C	-2.78%
CN(Cc1ccccc1)S(=O)(=O)c1ccc(NC(=O)Nc2ccccc2)cc1	-2.66%
O=C(NCCc1ccc(Cl)cc1)c1nc(-c2ccc(-n3cccc3)cc2)no1	-2.05%
COC(=O)[C@@H]1COC(C(O)[C@H](CCc2ccccc2)NC(=O)CCC2CCCCC2)=N1 (some centres unmarked)	4.33%
COc1ccc(-n2c(N)c(C#N)c3nc4ccccc4nc32)cc1	3.31%
CCN1C(=O)c2ccc(C(=O)NCc3ccco3)cc2C1=O	-2.46%
CN(C)c1ccc(NC(=O)Nc2ccc(Cl)c(Cl)c2)cc1	0.51%

SMILES	% Inhibition @ 10 uM
CN1CCN(CC2CC=CCC2)CC1 (centres unmarked)	1.62%
COc1ccc(N(CC(=O)Nc2ccccc2C(C)C)S(C)(=O)=O)cc1	17.9%
CC(C)c1ccccc1NC(=O)COc1ccc(Br)cc1	-4.07%
CC1CCN(c2ccc3nnc(CCC(=O)Nc4ccccn4)n3n2)CC1	-0.826%
Oc1[nH]c2ccccc2c1/C=N/Cc1ccccc1	4.74%
C=Cc1ccc(Cn2c(C(=O)O)c(CNCCc3ccc(Cl)cc3)c3ccc(C)cc32)cc1	6.57%
COc1ccc(C(=O)O)cc1S(=O)(=O)Nc1ccccc1C	-1.38% and 2.01%
O=C1CCCN1C(=O)c1ccc(F)cc1	-5.08%
CNc1nc(Cl)nc(NC(C)(C)C)n1	0.968%
CCN1CCN(CC2CCCCC2)CC1	-5.94%
O=C(Cc1ccccc1)n1nc(-c2ccco2)nc1SCc1ccccc1	4.08%
CN(C)CC(=O)N1c2ccccc2CCc2ccc(N)cc21	-0.736%
Cc1ccc(Cn2c(=O)c3ccccc3n3c(CCC(=O)O)nnc23)cc1	-2.42%
COc1ccccc1NC(=O)c1c(NCc2cccnc2)sc2c1CCC(C)C2 (centres unmarked)	-1.68%
CC(=O)n1c(C)c(-c2ccccc2)c2cc(Cl)ccc21	-3.77%
COc1ccc(C2C3=C(O)CCCC3=NC(C)=C2C(=O)Nc2cccc(C(F)(F)F)c2)c(OC)c1 (centres unmarked)	2.38%
CC1=C(C#N)C(Nc2ccc(Cl)cn2)(C(F)(F)F)C(=O)N1 (centres unmarked)	-3.33%
O=C(COCc1cc(-c2ccc3c(c2)OCO3)on1)N1CCC2(CC1)OCCO2	6.04%
CC1CCC(N2CCCC(O)C2)CC1 (centres unmarked)	-1.81%
OC1CCN(Cc2cccc(Cl)c2Cl)CC1	-0.969%
CCn1c(C(C)N2CCCCC2)nc2ccccc21 (centres unmarked)	-3.08%
O=C(Nc1nc(-c2ccc(Cl)c(Cl)c2)cs1)c1cnccn1	-3.33%
CC(C)Cn1c2c(c(=O)[nH]c1=O)C(NS(=O)(=O)c1ccc(Cl)cc1)(C(F)(F)F)C(=O)N2 (centres unmarked)	0.561%
